Assay results from PubChem BioAssay AID1347120 (National Center for Advancing Translational Sciences (NCATS), 2019).
About 930 (0.24%) of roughly 390,000 compounds were called active. Inconclusive results, whose numbers are uncertain, are shown with a selection of clear calls. Calls follow the shape of the dose curve; as a rule, active = well fitted activation curve with a large enough effect; inconclusive = small, poorly fitted or top-dose-only effect; inactive = no such curve, though single readings can be large or run the other way. Where the call is inconclusive, the potency comes from a doubtful curve fit.

assay: qHTS for Suppressors of FUS Proteinopathy: Primary screen using FUS-linked yeast assay; also: nearly all actives have a fitted effect of over 55% in size; conditions: S. cerevisiae FUS-expressing, OD600, 24 h; Potency: growth rescue; series mostly up to 76.6 µM
Method in brief: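 S. cerevisiae expressing FUS from galactose induction served as the toxicity model. Growth after 24hr at 30C, read as absorbance at 600 nm, indicates suppression of toxicity; compounds dosed at several concentrations.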
Potency is read from the fitted curve at half-maximal effect; tags tell the direction and shape of the fitted curve.

Row | Compound | Potency
1 | N#Cc1ccc(C(=O)N2CCCCC2c2cc(C(=O)Nc3cccc(C#N)c3)no2)cc1 (centres undefined) | inconclusive: 39.8 µM [activator, single point]
2 | CCN(CC)CCNC(=O)c1ccc(NC(=O)c2cc(-c3ccncc3)nc3ccccc23)cc1 | inconclusive: 25.1 µM [activator, partial curve, poor fit]
3 | COc1ccc(Cn2c(SCc3ccc(C(=O)NCc4ccccc4F)cc3)nc3cccnc32)cc1 | inactive
4 | N#C/C(=C(/O)CSc1ccccc1C(=O)O)c1nc2ccccc2s1 | inconclusive: 20 µM [activator, partial curve, poor fit]
5 | CCOC(=O)[C@@]12CCC3=C1N(CCC3)C(=O)[C@H](CC(=O)N1CCOCC1)C2 | inactive
6 | CCc1ccc(S(=O)(=O)c2nnn3c2nc(NC2CCCC2)c2sccc23)cc1 | inactive
7 | COc1ccc(C)cc1NC(=O)CCS(=O)(=O)c1ccc2c(c1)CC(=O)N2C | inconclusive: 28.2 µM [activator, partial curve, poor fit]
8 | C[C@H]1COc2cccc(F)c2S(=O)(=O)N1C | inactive
9 | Cn1cc(/C=N/n2cnc3scc(-c4ccccc4)c3c2=O)c2ccccc21 | inconclusive: 17.8 µM [activator, partial curve, poor fit]
10 | CC(C)(C)OC(=O)C[C@@H]1C/C=C\C[C@H](CC(=O)N(CCO)Cc2ccccc2)C(=O)NC[C@@H](c2ccccc2)OC1=O | inconclusive: 17.8 µM [activator, partial curve, poor fit]
11 | C[C@@H]1CN([C@H](C)CO)C(=O)c2cccc(NC(=O)Nc3ccc(F)cc3)c2O[C@H]1CN(C)C(=O)Nc1ccc(C(F)(F)F)cc1 | inconclusive: 20 µM [activator, single point]
12 | C[C@@]12C(=O)Nc3cc(F)c(F)cc3C(=O)N1[C@H]1c3cc(Cl)ccc3OC[C@@H]1[C@@H]2c1ccccc1 | inconclusive: 50.1 µM [activator, single point]
13 | CCN1CCN(CCCNC(=O)c2cc3c(=O)oc4ccc(C)cc4c3s2)CC1 | inconclusive: 2.51 µM [activator, full curve]
14 | CC1CCc2sc(C(=O)NC3CCN(Cc4ccccc4)CC3)cc2C1 (centres undefined) | inconclusive: 22.4 µM [activator, partial curve, poor fit]
15 | COc1ccc(C(=O)/C=C/Nc2ccc([N+](=O)[O-])cc2C)cc1OC | inactive
16 | C=CCC[C@@H](Cc1ccc(F)cc1)C(=O)OC[C@@H](C)NC(=O)[C@@H](CC=C)CC(=O)N[C@H](CO)Cc1ccccc1 | inconclusive: 39.8 µM [activator, single point]
17 | COc1ccccc1CN(C)C(=O)C(NC(=O)Cc1cccc2ccccc12)C(C)C (centres undefined) | inconclusive: 28.2 µM [activator, single point]
18 | COCCCN1CC(=O)N2C(c3cccc(OC)c3OC)c3[nH]c4ccccc4c3C[C@H]2C1=O (some centres undefined) | inconclusive: 3.16 µM [activator, full curve]
19 | O=C(NC1CCCCN(Cc2ccc(OC(F)(F)F)cc2)C1=O)c1ccc2ccccc2c1 (centres undefined) | inconclusive: 17.8 µM [activator, partial curve]
20 | COc1ccccc1NC(=O)COc1ccccc1C(=O)c1cnn(-c2ccccc2)c1 | inconclusive: 28.2 µM [activator, single point]

Row | Compound | Potency
21 | COc1ccc(C(C)(NC(C)=O)c2nc(-c3ccc(F)cc3OC)cs2)cc1 (centres undefined) | inconclusive: 25.1 µM [activator, single point]
22 | N#C/C(=C(/O)CSc1nnc(Cc2cccs2)n1C1CCCCC1)c1nc2ccccc2[nH]1 | active: 50.1 µM
23 | Cc1cc(C)c2cc(C#N)c(SCC(=O)Nc3cc(C)on3)nc2c1 | inactive
24 | CC1=CCC2C(=O)N(Cc3ccccc3)C(=O)C2C1 (centres undefined) | inconclusive: 2.51 µM [activator, full curve]
25 | COc1ccc(NC(=O)Cn2nc(C(F)(F)F)c3c2CCCC3)cc1OC | inconclusive: 31.6 µM [activator, partial curve, poor fit]
26 | CCO[C@@H]1OC(C(=O)Nc2ccccc2)=C[C@H](c2ccc(C(F)(F)F)cc2)[C@H]1CCCO | inconclusive: 28.2 µM [activator, single point]
27 | CCN1C(=O)[C@H]2[C@@H](c3ccc(C)cc3)N3C(=O)N(c4cccc(Cl)c4)C(=O)[C@@]3(Cc3ccccc3)[C@H]2C1=O | inconclusive: 7.94 µM [activator, partial curve]
28 | Cc1ccc(NC(=O)CSc2nc3cc(C(=O)NCC4CCCO4)ccc3c(=O)n2CC2CCCO2)cc1 (centres undefined) | inconclusive: 14.1 µM [activator, partial curve]
29 | Cc1ccccc1Nc1c(-c2ccc(N3CCOCC3)cc2)nc2cnccn12 | inconclusive: 31.6 µM [activator, partial curve, poor fit]
30 | CCOC(=O)[C@@H]1[C@H]2COc3cc(OC)ccc3[C@@H]2N2C(=O)N(c3ccc(C(F)(F)F)cc3)C(=O)[C@@]12C | inconclusive: 22.4 µM [activator, single point]
31 | c1ccc(-c2nnc(N3CCCC3)nc2-c2ccccc2)cc1 | inactive
32 | Cc1ccn2c(NC3CCCC3)c(-c3cccs3)nc2c1 | inactive
33 | COc1ccccc1-n1c(SCC(=O)O)nc2c(sc(=S)n2-c2ccccc2C)c1=O | inactive
34 | COc1ccc(C(=O)NC(=S)Nc2ccccc2N2CCCCC2)cc1[N+](=O)[O-] | inconclusive: 39.8 µM [activator, partial curve, poor fit]
35 | Cc1c(NC(=O)c2sc3ccccc3c2Cl)cccc1-c1nc2ccccc2o1 | inactive
36 | OC1(C#Cc2c(-c3ccsc3)oc3ccc(N4CCOCC4)cc23)CCCCC1 | inconclusive: 25.1 µM [activator, single point]
37 | CCCN1CCc2c(sc3nc(SC)n(-c4ccccc4)c(=O)c23)C1 | inconclusive: 31.6 µM [activator, single point]
38 | COC(=O)c1ccc(N2CCCCC2)c(NC(=O)c2ccco2)c1 | inactive
39 | CN(CC(=O)Nc1ccc(Cl)c(Cl)c1)C1CCCCC1 | inactive
